Test results published in PubChem BioAssay AID651820 (National Center for Advancing Translational Sciences (NCATS), 2012).
The campaign covered roughly 340,000 compounds. About 12,000 (3.5%) were called active. The inconclusive results got no clear call from the source; some entries with a clear call stand among them for comparison. Calls follow the shape of the dose curve; as a rule, active = well fitted inhibition curve with a large enough effect; inconclusive = small, poorly fitted or top-dose-only effect, or another doubt; inactive = no such curve, though single readings can be large or run the other way. Potencies of inconclusive entries are left out as doubtful fits.

experiment: qHTS Assay for Inhibitors of Hepatitis C Virus (HCV); conditions: Huh7.5.1 HCVcc-Cre (HCVcc is cell-culture hepatitis C virus) infection, luciferase reporter, 44 h; activity change, negative = inhibition: at 41.8 µM (top of the series) unless noted
Method in brief: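 Cells (1,000/well) were plated 4 h before compound, then infected with HCVcc-Cre virus (~0.5 moi). After 44 h further culture, infection was read as luciferase luminescence following a 15 min substrate incubation at room temperature.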
% is scaled to controls: 0 for no effect and ±100 for the full control effect; potency is read from the fitted curve at half-maximal effect; tags tell the direction and shape of the fitted curve.

Row | Compound | Potency | activity change, negative = inhibition
1 | CCc1cc(=O)oc2c3c(cc(OCC(=O)NCc4cccnc4)c12)OC(C)(C)CC3 | inconclusive [inhibitor, single point] | 
2 | COc1ccc(C(=O)Cn2c(Cl)nc3c2c(=O)n(C)c(=O)n3C)cc1 | inconclusive [inhibitor, single point] | 
3 | O=C(NCc1ccccc1)Nc1cccn(Cc2ccc(F)cc2)c1=O | inconclusive [inhibitor, single point] | 
4 | COc1ccccc1N/C(N)=N/c1nc(CSc2ccc(C)cc2)cc(=O)[nH]1 | inconclusive [inhibitor, partial curve] | 
5 | COc1c(Br)cc([N+](=O)[O-])c(OC)c1C(=O)NC(=O)Nc1cc(Cl)cc(Cl)c1 | inconclusive [inhibitor, partial curve] | 
6 | C=C(C)CSc1nc2sc3c(c2c(=O)n1-c1ccc(C)cc1)CCN(C)C3 | inconclusive [inhibitor, partial curve, poor fit] | 
7 | CC(=O)c1ccc(-c2nnc(CCC(=O)N(C)Cc3cnc4ccccn34)o2)s1 | inconclusive [inhibitor, partial curve, poor fit] | 
8 | COCc1nn2c(N)c(C#N)cnc2c1-c1ccccc1 | inconclusive [inhibitor, partial curve] | 
9 | Cc1cccc(NC(=O)COc2ccc(-c3nn(C)c(=O)c4ccccc34)cc2)c1 | inconclusive [inhibitor, single point] | 
10 | O=C(NCCC(=O)N(Cc1ccco1)Cc1cccs1)c1ccc([N+](=O)[O-])cc1 |  | inactive: 26.5%
11 | CC(=O)N1CCn2c3ccc(C)cc3c3cccc1c32 | inconclusive [inhibitor, single point] | 
12 | O=[N+]([O-])c1ccc(N=Nc2ccc(O)cc2O)cc1 | inconclusive [inhibitor, single point] | 
13 | C=CCN1C(=O)c2ccccc2NC1c1cc(Br)cs1 (configuration not stated) |  | inactive: -29.8%
14 | CC/C(=N\NC(=O)c1ccc(-c2ccccc2)cc1)C12CC3CC(CC(C3)C1)C2 | inconclusive [inhibitor, partial curve] | 
15 | Cc1ccc(S(=O)(=O)N(CC(=O)Nc2ccc(Cl)cc2)C(=O)N2CCN(C)CC2)cc1 |  | inactive: 6.11%
16 | CCc1nc2sc(C(=O)O)c(N)c2c2c1CCCC2 | inconclusive [inhibitor, partial curve] | 
17 | Cc1cc(Cl)c(C)c(S(=O)(=O)N2CCN(CC(=O)N3CCOCC3)CC2)c1Cl | inconclusive [inhibitor, partial curve] | 
18 | CCN(CC)CCNC(=O)c1ccc2c(=O)n(CCc3ccccc3)c(=O)[nH]c2c1 | inconclusive [inhibitor, partial curve] | 
19 | Cc1ccc(Cl)cc1N1CCN(C(=O)CNC(=O)c2ccc(Br)o2)CC1 | inconclusive [inhibitor, single point] | 
20 | CCC1=C(OC(=O)N(CC)CC)N2C(=O)OC(=NCCc3c[nH]c4ccccc34)[C@]2(Cc2ccccc2)[C@H]2C1=CC[C@H]1C(=O)N(CC)C(=O)[C@H]12 | inconclusive [inhibitor, partial curve] | 
21 | CCS(=O)(=O)c1ccc(O)c(NC(=O)Nc2ccc(C(C)(C)C)cc2)c1 | inconclusive [inhibitor, single point] | 

Row | Compound | Potency | activity change, negative = inhibition
22 | Cc1onc(-c2ccccc2)c1C(=O)NNC(=O)c1ccccc1 | inconclusive [inhibitor, single point] | 
23 | CC(=O)Oc1cccc(N2C(=O)c3cccc4c([N+](=O)[O-])ccc(c34)C2=O)c1 | inconclusive [inhibitor, single point] | 
24 | COc1ccc(C(CCN2CCCC(C)C2)c2c(OC)cc(OC)c3c(-c4ccccc4)cc(=O)oc23)cc1 (configuration not stated) |  | inactive: -22.8%
25 | O=C(NCCS(=O)(=O)NCc1ccco1)c1ccccc1 |  | inactive: 4.26% [at 8.37 µM]
26 | CC(C)=CCOc1ccc([C@@H]2COc3c(ccc4c3C=CC(C)(C)O4)C2)c(O)c1 | active: 4.47 µM | 
27 | CCN1CCN(c2nc3sc4c(c3c3ncnn23)CC(C)CC4)CC1 (configuration not stated) | inconclusive [inhibitor, partial curve] | 
28 | Cc1ccccc1OCCCC(=O)NC1CCCCC1 | inconclusive [inhibitor, partial curve] | 
29 | O=C1Nc2ccc(Cl)cc2/C1=C/C1CC=CCC1 (configuration not stated) | inconclusive [inhibitor, single point] | 
30 | O=C(Nc1ccc(N2CCOCC2)c(S(=O)(=O)Nc2ccccc2Cl)c1)c1ccc(F)cc1 | active: 10 µM | 
31 | CC(C)(C)N=Cc1c(O)ccc2oc3c(c12)CCCC3 |  | inactive: -2.55%
32 | Cc1csc(Nc2nc(N)c(C(=O)Nc3cc(Cl)ccc3F)o2)n1 | inconclusive [inhibitor, single point] | 
33 | CC(OC(=O)c1ccccn1)C(=O)Nc1nc(-c2ccc(F)c(F)c2)cs1 (configuration not stated) |  | inactive: 2.85%
34 | CCOc1ccc(-n2c(=S)sc3c(=O)n(-c4ccc(F)cc4)c(SCC(=O)O)nc32)cc1 |  | inactive: 5.94%
35 | Cc1nnc(SCc2nnc(-c3ccc(Cl)cc3)o2)n1-c1ccccc1 |  | inactive: 0.874%
36 | Cc1ncoc1C(=O)Nc1ccc(Oc2ccccc2)cc1 | inconclusive [inhibitor, single point] | 
37 | FC(F)Oc1ccc(/C=N/n2c(Cc3ccc(Br)cc3)n[nH]c2=S)cc1 |  | inactive: -5.58%
38 | NC(=O)c1ccccc1NC(=O)CN1CCN(Cc2ccc(Cl)cc2Cl)CC1 | inconclusive [inhibitor, partial curve] | 
39 | O=[N+]([O-])c1cc(-c2ccc(/C=N/n3cnnc3)o2)ccc1Cl |  | inactive: -14.4%
40 | CCCCCn1c(=O)c(C(=O)NC(C)c2ccccc2)c(O)c2ccccc21 (configuration not stated) | inconclusive [inhibitor, single point] | 
41 | COc1cccc(NC(=O)C(Sc2nnc(-c3ccncc3)n2-c2ccc(Cl)cc2)c2ccccc2)c1 (configuration not stated) | inconclusive [inhibitor, single point] | 
42 | CCOC(=O)Cn1c(=O)c(-c2ccccc2NCc2ccccc2)nc2ccccc21 | inconclusive [inhibitor, single point] | 
